{"source": "paper PMC9911399", "about": "“Two distinct binding modes provide the RNA-binding protein RbFox with extraordinary sequence specificity”", "binders": {"B1": {"name": "UGAAUGG (DNA:RNA)", "RNA": "GGGAGACCGGAAUUCAGAUUGUCCUGAAUGGUUAAAUCCCGUCGUAGCCACCA", "DNA 1": "CAATCTGAATTCCGGTCTCCC", "DNA 2": "TGGTGGCTACGACGGGATT"}, "B2": {"name": "UUUCUCU (DNA:RNA)", "RNA": "B1 RNA with G26U, A27U, A28C, G30C, G31U", "DNA 1": "CAATCTGAATTCCGGTCTCCC", "DNA 2": "TGGTGGCTACGACGGGATT"}, "B3": {"name": "GUUCAGA (DNA:RNA)", "RNA": "B1 RNA with U25G, G26U, A27U, A28C, U29A, G31A", "DNA 1": "CAATCTGAATTCCGGTCTCCC", "DNA 2": "TGGTGGCTACGACGGGATT"}, "B4": {"name": "GACUGAG (DNA:RNA)", "RNA": "B1 RNA with U25G, G26A, A27C, A28U, U29G, G30A", "DNA 1": "CAATCTGAATTCCGGTCTCCC", "DNA 2": "TGGTGGCTACGACGGGATT"}, "B5": {"name": "UGUUGCC (DNA:RNA)", "RNA": "B1 RNA with A27U, A28U, U29G, G30C, G31C", "DNA 1": "CAATCTGAATTCCGGTCTCCC", "DNA 2": "TGGTGGCTACGACGGGATT"}, "B6": {"name": "CCCGUAC (DNA:RNA)", "RNA": "B1 RNA with U25C, G26C, A27C, A28G, G30A, G31C", "DNA 1": "CAATCTGAATTCCGGTCTCCC", "DNA 2": "TGGTGGCTACGACGGGATT"}, "B7": {"name": "UUCCGCU (DNA:RNA)", "RNA": "B1 RNA with G26U, A27C, A28C, U29G, G30C, G31U", "DNA 1": "CAATCTGAATTCCGGTCTCCC", "DNA 2": "TGGTGGCTACGACGGGATT"}, "B8": {"name": "CAGUUUC (DNA:RNA)", "RNA": "B1 RNA with U25C, G26A, A27G, A28U, G30U, G31C", "DNA 1": "CAATCTGAATTCCGGTCTCCC", "DNA 2": "TGGTGGCTACGACGGGATT"}, "B9": {"name": "CUGAGUU (DNA:RNA)", "RNA": "B1 RNA with U25C, G26U, A27G, U29G, G30U, G31U", "DNA 1": "CAATCTGAATTCCGGTCTCCC", "DNA 2": "TGGTGGCTACGACGGGATT"}}, "note": "Residue numbers refer to the chain shown, from its start. The list shows a part of the results."}
{"biological_target": "T1, RBFOX1 RRM (Homo sapiens, UniProt Q9NWB1 109-208)", "T1 sequence": "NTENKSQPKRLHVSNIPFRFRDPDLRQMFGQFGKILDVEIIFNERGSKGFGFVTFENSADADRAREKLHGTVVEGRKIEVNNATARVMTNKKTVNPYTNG", "assay": "EMSA; HiTS-Eq, 1 nM pool, 10 min; buffer printed only for the single-RNA assays: 10 mM Tris pH 7.5, 150 mM NaCl, 3.4 mM EDTA, 0.001% NP-40, 30 C", "conditions": "tags: His6 N-terminal (pET28a); label: 5' 32P", "in_short": "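These values rest on relative association constants, computed from read-count changes of each RNA species versus the control reaction and normalised to the cognate motif. Reads came from free RNA recovered by 8% native PAGE after purified RbFox RRM (wild type or mutant) at increasing concentrations was equilibrated for 10 min in 50 µL with 1 nM of a 5′-radiolabelled pool with 7 randomized nucleotides and DNA-annealed flanks.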"}
{"binder": "B1", "binding signal": "0.0227 KA relative to UGCAUGU"}
{"binder": "B2", "binding signal": "0.0126 KA relative to UGCAUGU"}
{"binder": "B3", "binding signal": "0.0176 KA relative to UGCAUGU"}
{"binder": "B4", "binding signal": "0.0217 KA relative to UGCAUGU"}
{"binder": "B5", "binding signal": "0.0243 KA relative to UGCAUGU"}
{"binder": "B6", "binding signal": "0.000243 KA relative to UGCAUGU"}
{"binder": "B7", "binding signal": "0.00577 KA relative to UGCAUGU"}
{"binder": "B8", "binding signal": "0.00996 KA relative to UGCAUGU"}
{"binder": "B9", "binding signal": "0.0144 KA relative to UGCAUGU"}
